Consider 42 sequences from article PMC7819943, “Rice protein-binding microarrays: a tool to detect cis-acting elements near promoter regions in rice”.

Some of the results follow.

The assay addresses T1, OsWOX13 (Oryza sativa, UniProt Q5QMM3 1-267).
T1 sequence: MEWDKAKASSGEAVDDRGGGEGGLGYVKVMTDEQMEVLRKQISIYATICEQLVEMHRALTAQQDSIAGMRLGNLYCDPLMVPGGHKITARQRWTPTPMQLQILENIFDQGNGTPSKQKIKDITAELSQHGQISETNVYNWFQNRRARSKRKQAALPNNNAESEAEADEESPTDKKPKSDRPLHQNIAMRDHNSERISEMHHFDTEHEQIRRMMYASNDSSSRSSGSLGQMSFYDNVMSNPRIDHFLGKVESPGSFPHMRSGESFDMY
As to the kind of experiment: protein-binding microarray (RPBM); PBS, 2% BSA, 51.3 ng/ul salmon testes DNA, 50 uM zinc acetate, 200 nM TF, 25 C, 1 h; high values mean tight binding. Particulars: protein: recombinant; tags: N-terminal polyhistidine and DsRed monomer fusion (pET32a); label: CyDye5-dUTP incorporated in the synthesized complementary strand; 3' TTTTT single-stranded linker to array surface; dsDNA, one strand shown. An outline of the steps:
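Transcription factors, each fused N-terminally to a polyhistidine tag and DsRed, were expressed in E. coli BL21-CodonPlus and purified on Ni–NTA. A custom Agilent array was made double-stranded by primer extension with Cy5-dUTP and blocked with 2% BSA. It was incubated with 200 nM protein in PBS, 2% BSA, salmon testes DNA and 50 µM zinc acetate at 25 °C for 1 h, then washed. The binding signal is per-feature fluorescence intensity (arbitrary units) read on an Axon 4000B scanner.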
“GTCAATTCTGTCAATCTATGACTTTATGAAATCGTGTTTACGGAGTCACCTAGTGCAG”: the binding signal is 27100 fluorescence intensity (a.u.).

Consider “ATAATGTCAAATTTCGTTCCATTGTGAAGAAATTTTGCCACGGAGTCACCTAGTGCAG”, for which the binding signal is 3410 fluorescence intensity (a.u.).

Consider “AGGTGACTGGCCATGGACTGGCCCATGACGTTCGTGCCGGCGGAGTCACCTAGTGCAG”, for which the binding signal is 7080 fluorescence intensity (a.u.).

“ACAAATTTGTAGCCCGCTGCTCTTCTCTCTCATCTTTTATCGGAGTCACCTAGTGCAG”: the binding signal was 4860 fluorescence intensity (a.u.).

Consider “ATAGAAACTTAATTAACATTGCATGGCGATGGTTTGACGACGGAGTCACCTAGTGCAG”, for which the binding signal is 6800 fluorescence intensity (a.u.).

With “GTTGTGACAGAATCAAGAATTTAAACCATTTTCATTATTACGGAGTCACCTAGTGCAG”, the binding signal was 4020 fluorescence intensity (a.u.).

For “TATAATTAACCCCGCAAATATATATTCTCATGCACCAAGCCGGAGTCACCTAGTGCAG”, the binding signal was 9970 fluorescence intensity (a.u.).

“AACCCAATAACGGTAACTGACAAAACGATGAAAACCAAACCGGAGTCACCTAGTGCAG”: the binding signal was 4460 fluorescence intensity (a.u.).

Consider “ATAACTTAACAGAAATATTATAGGTTGATCAAATGGAATGCGGAGTCACCTAGTGCAG”, for which the binding signal was 8320 fluorescence intensity (a.u.).

For the sequence “AATTACATATATAATTTAAGGACTTACAAATATAATTTAGCGGAGTCACCTAGTGCAG”, the binding signal was 4280 fluorescence intensity (a.u.).

As to “GCCAGTGTCACCTAATTATCTGTCGTTTATTTTATATTGTCGGAGTCACCTAGTGCAG”, the binding signal was 4500 fluorescence intensity (a.u.).

“GTATGATTATCTTTCTTCGAGTAATTAACACGAAACGATGCGGAGTCACCTAGTGCAG”: the binding signal is 40700 fluorescence intensity (a.u.).

As for “ACGGTGACTGATTAGTCTCTTGTGCCCCTAAGGGCAGAGCCGGAGTCACCTAGTGCAG”, the binding signal is 29600 fluorescence intensity (a.u.).

As for “GTAGTAATTATTAAAATCTTTTGAGCAAGAGGGGTATACTCGGAGTCACCTAGTGCAG”, the binding signal was 16500 fluorescence intensity (a.u.).

Consider “GCTCCGTTAATTTTCTCGGCAATTAAGCGAAAGCAATTGACGGAGTCACCTAGTGCAG”, for which the binding signal is 9360 fluorescence intensity (a.u.).

Consider “GCCCAAACTAGTGATTATGTGGGCCTAAGAAAGAAAAGCCCGGAGTCACCTAGTGCAG”, for which the binding signal was 3180 fluorescence intensity (a.u.).

On to “ACTAATTTGGAGTATTAAGCATAGACTATTTATAAAACTACGGAGTCACCTAGTGCAG”, for which the binding signal was 7390 fluorescence intensity (a.u.).

For the sequence “GTACACACACTCGGTTAATTACCAGCAGCAGTTTACAGTCCGGAGTCACCTAGTGCAG”, the binding signal is 3400 fluorescence intensity (a.u.).

In the case of “AGCTGAAATCAGATGGCAATTAATGTGGATATGATACTTGCGGAGTCACCTAGTGCAG”, the binding signal is 7310 fluorescence intensity (a.u.).

Take “CAGTTAATTTATACAAGCAAAACGAATTATATAGTTCATGCGGAGTCACCTAGTGCAG”: the binding signal is 33100 fluorescence intensity (a.u.).

Consider “TTTATAATTGCAATTAGTGTTTCAGGATGAGGGAAGTGCACGGAGTCACCTAGTGCAG”, for which the binding signal was 44600 fluorescence intensity (a.u.).

Regarding “AGAGATGCTGATTGCTGAGCGGTACATATGGGCTGGCATTCGGAGTCACCTAGTGCAG”, the binding signal is 13700 fluorescence intensity (a.u.).

Turning to “ATTGTTGGATTGGACAATTTATTAACAGTCTCTGTCCGAGCGGAGTCACCTAGTGCAG”, the binding signal is 16600 fluorescence intensity (a.u.).

Consider “AATAACAAAACAAATTACAGATTTTGCCAGAAAACTGCGACGGAGTCACCTAGTGCAG”, for which the binding signal is 7780 fluorescence intensity (a.u.).

Regarding “TACTCTGATGGATATATTGGAGGATATGAATTAAGGAGTCCGGAGTCACCTAGTGCAG”, the binding signal is 6190 fluorescence intensity (a.u.).

Consider “ATTAATTAAGGAAGGGTTGCATGCATCCGTGGGCCGTATGCGGAGTCACCTAGTGCAG”, for which the binding signal is 3630 fluorescence intensity (a.u.).

“ATTAAACAAATATTAAATTTAGATCCTATAAACGCTCCTACGGAGTCACCTAGTGCAG”: the binding signal is 10400 fluorescence intensity (a.u.).

“GGATGTGATGACTGTTTGTCTGTTTGGCTGATATCTCCACCGGAGTCACCTAGTGCAG”: the binding signal was 7550 fluorescence intensity (a.u.).

Turning to “ACTAGAAACATCATTTAGATTGCATAAGTTCAAAACAACCCGGAGTCACCTAGTGCAG”, the binding signal was 3160 fluorescence intensity (a.u.).

Consider “AAGCAAATCTCTAGATAGATAGATAGATGGATGGATGGATCGGAGTCACCTAGTGCAG”, for which the binding signal is 10800 fluorescence intensity (a.u.).

For “GTCGGATTAGTGATTATGCTAATCAATGCCACGTAGGATCCGGAGTCACCTAGTGCAG”, the binding signal is 33300 fluorescence intensity (a.u.).

As for “TGTTAGATGATAAAACATGATTAATATTTTATGCGTGACTCGGAGTCACCTAGTGCAG”, the binding signal is 8120 fluorescence intensity (a.u.).

On to “TATAATTGATTATTTTAATTTCTTTTGCTATTAATAGTCACGGAGTCACCTAGTGCAG”, for which the binding signal was 64700 fluorescence intensity (a.u.).

On to “GTAAATTGGCATTGGTTTGATTTATGTTTGCAATGCAGCGCGGAGTCACCTAGTGCAG”, for which the binding signal was 58200 fluorescence intensity (a.u.).

In the case of “GGAAAATTACCGTTCCTGGTTTTAACAGCGTTTGTGCAATCGGAGTCACCTAGTGCAG”, the binding signal was 7670 fluorescence intensity (a.u.).

Take “TAGTGCCAATCATCAACTAAGGCCCAGCCCATACAATCTACGGAGTCACCTAGTGCAG”: the binding signal is 7940 fluorescence intensity (a.u.).

With “ATGCAGTAATTAATCAATTAACTAATTAACTCACCCCATGCGGAGTCACCTAGTGCAG”, the binding signal is 47800 fluorescence intensity (a.u.).

Regarding “GATGTGATGTAATTATTGTGTATTAAGGTTTTCGATACAACGGAGTCACCTAGTGCAG”, the binding signal is 12600 fluorescence intensity (a.u.).

With “GCCATCAACATTGAACTGTTGATTGCACCTCTGCCAAGAACGGAGTCACCTAGTGCAG”, the binding signal was 4410 fluorescence intensity (a.u.).

Turning to “AAATGACAGCTCAATCAACACGCACCAAACTGAAACGGCCCGGAGTCACCTAGTGCAG”, the binding signal was 41400 fluorescence intensity (a.u.).

“ACTAATTGCACATATTGCGACTAATTTGCGAGACGAATCTCGGAGTCACCTAGTGCAG”: the binding signal was 26300 fluorescence intensity (a.u.).

“GCTTCAGCAAGTAATTAAATTATTGGCATTTCATCCATGTCGGAGTCACCTAGTGCAG”: the binding signal was 4820 fluorescence intensity (a.u.).
